# In PubChem BioAssay AID504706 (National Center for Advancing Translational Sciences (NCATS), 2011):
# The campaign covered roughly 320,000 compounds. About 200 (0.062%) were called active. Inconclusive means that the source gave no clear call. Such entries were picked first, then a sample of the others. The call rests on the fitted dose curve; in most records, active means well fitted activation curve with a large enough effect; inconclusive means small, poorly fitted or top-dose-only effect; inactive means no such curve, though single readings can be large or run the other way. Potencies of inconclusive entries are left out as doubtful fits.
# Assay: qHTS assay for re-activators of p53 using a Luc reporter; further: nearly all actives have a fitted effect of over 45% in size
# Settings: H1299 p53-A138V BP100-luciferase reporter, luminescence, 24 h; series mostly up to 92.2 µM
# In short: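 H1299 (p53-null), stable ts p53-A138V + BP100-Luc; 1000 cells/well, Opti-MEM/10% FBS; cpd 4 pt, 1:5; 24 h, 37 deg C, 5% CO2; detection reagent 10 min RT; luminescence.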
# Potency means the concentration at half of the fitted maximal effect; tags describe the fitted curve by direction and shape.
row,SMILES,Potency
1,Cc1cccc(NC(=O)CN2C(=O)N/C(=C\c3ccc(N4CCOCC4)cc3)C2=O)c1,"inconclusive [activator, full curve, poor fit]"
2,COc1cc2cnc(-c3ccsc3)c(-c3ccc(F)cc3)c2cc1OC,inactive
3,CC(=C/c1ccc(C(C)C)cc1)/C=N/NC(=O)c1ccncc1,"inconclusive [activator, full curve, poor fit]"
4,CN(CCOc1ccc(Cl)cc1)C(=O)c1cc([N+](=O)[O-])ccc1N1CCOCC1,inactive
5,COc1ccc(NC(=O)c2noc3c2CCC3)cc1,"inconclusive [activator, partial curve, poor fit]"
6,Cc1ccc(SC[C@H](CC(C)C)N2CCN(CCc3ccccc3)CCC2=O)cc1,"inconclusive [activator, single point]"
7,COc1ccc(/C=N/NC(=O)Nc2nonc2N)cc1,"inconclusive [activator, partial curve, poor fit]"
8,C/C(=N\NC(=O)c1ccc(F)cc1)c1ccc(NC(=O)Cc2ccccc2)cc1,"inconclusive [activator, partial curve, poor fit]"
9,O=C(COC(=O)C1CC(=O)N(Cc2ccco2)C1)c1ccc(OC(=O)c2ccccc2)cc1 (stereo not drawn),"inconclusive [activator, partial curve, poor fit]"
10,Cc1c(Cl)cccc1NC(=O)COC(=O)C12CC3CC(CC(O)(C3)C1)C2,"inconclusive [activator, full curve, poor fit]"
11,COc1ccc(/C=C(/C(=O)c2cccs2)N2C=CC=CC2=C(C#N)C#N)cc1,inactive
12,C/C(=N\O)c1ccc2c3ccccc3n(C)c2c1,"inconclusive [activator, partial curve, poor fit]"
13,COc1ccc(-c2nc(C#N)c(NCCc3ccccc3)o2)cc1,"inconclusive [activator, partial curve, poor fit]"
14,c1ccc2nc(-c3ccc(-n4ccnc4)cc3)ccc2c1,"inconclusive [activator, full curve, poor fit]"
15,COc1cc(Cl)ccc1OCc1cc(C(=O)N(C)CCc2cnn(C)c2)no1,"inconclusive [activator, partial curve, poor fit]"
16,CCOC(=O)CCc1c(C)c2ccc(OCc3ccc([N+](=O)[O-])cc3)cc2oc1=O,"inconclusive [activator, single point]"
17,O=[N+]([O-])c1ccccc1CSc1nc2ccccc2o1,"inconclusive [activator, partial curve, poor fit]"
18,Cc1ccc(O)c(-n2nc3ccccc3n2)c1,inactive
19,COc1cccc(CN2CCN(C(c3ccccc3)c3ccccc3)CC2)c1O,inactive
20,OC(CC#CCN1CCOCC1)(c1ccccc1)c1ccccc1,"inconclusive [activator, single point]"
21,Cc1ccc(NC(=O)c2ccc(Cl)c(N3C(=O)CCC3=O)c2)cc1,"inconclusive [activator, single point]"
22,CC1=C(C)CC2C(C1)C(=O)c1ccc(Br)cc1S2(=O)=O (stereo not drawn),"inconclusive [activator, partial curve, poor fit]"

row,SMILES,Potency
1,COc1ccccc1C(=O)Nc1cc2c(cc1C(=O)O)OCCCO2,inactive
2,O=C(NNC(=O)c1cc(-c2ccncc2)nc2ccccc12)c1ccccc1F,"inconclusive [activator, full curve, poor fit]"
3,NC(=O)c1ccccc1OCC(=O)Nc1ccc2c(c1)CCC2,"inconclusive [activator, partial curve, poor fit]"
4,O=C(Nc1ccccc1)c1cnc2n(c1=O)CCS2,"inconclusive [activator, partial curve, poor fit]"
5,O=C(NCCCc1ccccc1)C1CCN(c2nnc(-n3cccc3)s2)CC1,"inconclusive [activator, single point]"
6,CCCCn1c(=NC(=O)c2ccco2)c(C(=O)OCC)cc2c(=O)n3ccccc3nc21,inactive
7,O=C(c1cnn2c(C(F)F)cc(-c3ccccc3)nc12)N1CCN(Cc2ccc3c(c2)OCO3)CC1,inactive
8,COC(=O)c1cc(CSc2nc3ccccc3[nH]2)oc1C,"inconclusive [activator, single point]"
9,COc1cc2ccccc2cc1C(=O)Nc1sc2c(c1C(N)=O)CCN(C(C)C)C2,inactive
10,CCOc1ccc(NC(=O)NCc2ccccn2)cc1,"inconclusive [activator, single point]"
11,COc1ccc(OCC(=O)Nc2cccc(-c3nc4ccccc4o3)c2)cc1,"inconclusive [activator, full curve, poor fit]"
12,CCOC(=O)/C=C/C(=O)OCC(=O)Nc1ccc(Cl)cn1,"inconclusive [activator, full curve, poor fit]"
13,CCCc1ccc2oc(C(=O)N3CCC(N4CCCC(O)C4)CC3)c(C)c2c1 (stereo not drawn),inactive
14,O=C(CSc1nc2ccccc2c(=O)n1-c1ccccc1F)N1CCOCC1,inactive
15,COc1ccc(-n2cc(CNCCc3ncc(C)[nH]3)c(-c3ccccc3Cl)n2)cc1,inactive
16,COc1cc2ccccc2cc1C(=O)OCC(=O)NC1CCS(=O)(=O)C1 (stereo not drawn),"inconclusive [activator, single point]"
17,Cc1ccc(C(=O)Cn2cnc3ccccc3c2=O)cc1,"inconclusive [activator, partial curve, poor fit]"
18,O=C(CSc1cccc[n+]1[O-])c1cc(Cl)ccc1Cl,inactive
19,CCC(=O)Oc1ccc(C(=O)Nc2cccc(NC(=O)c3ccco3)c2)cc1,inactive
20,CC1(C)O[C@@H]2C[C@H]3[C@@H]4CCC5=CC(=O)CC[C@]5(C)[C@@]4(F)[C@@H](O)C[C@]3(C)[C@]2(C(=O)CCl)O1,inactive
21,C=CCNc1nc(-c2ccc([N+](=O)[O-])cc2)cs1,"inconclusive [activator, partial curve, poor fit]"
